Assay results reported in article PMC9911399, “Two distinct binding modes provide the RNA-binding protein RbFox with extraordinary sequence specificity”.
Where a chain is given by its changes, count along the chain named. The list shows a part of the results.

T1: RBFOX1 RRM RbFoxmut (Fox-RRM*) (Homo sapiens, UniProt Q9NWB1 109-208, R118D;E147R;N151S;E152T)
T1 sequence: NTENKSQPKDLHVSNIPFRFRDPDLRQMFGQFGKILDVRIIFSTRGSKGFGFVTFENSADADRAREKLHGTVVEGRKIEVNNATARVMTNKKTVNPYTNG

B1: CUCAGAG (DNA:RNA)
RNA: GGGAGACCGGAAUUCAGAUUGUCCCUCAGAGUUAAAUCCCGUCGUAGCCACCA
DNA 1: CAATCTGAATTCCGGTCTCCC
DNA 2: TGGTGGCTACGACGGGATT
B2: UCAUAGC (DNA:RNA)
RNA: GGGAGACCGGAAUUCAGAUUGUCCUCAUAGCUUAAAUCCCGUCGUAGCCACCA
DNA 1: CAATCTGAATTCCGGTCTCCC
DNA 2: TGGTGGCTACGACGGGATT
B3: CGGUAAU (DNA:RNA)
RNA: B1 RNA with U26G, C27G, A28U, G29A, G31U
DNA 1: CAATCTGAATTCCGGTCTCCC
DNA 2: TGGTGGCTACGACGGGATT
B4: CUAGGUG (DNA:RNA)
RNA: B1 RNA with C27A, A28G, A30U
DNA 1: CAATCTGAATTCCGGTCTCCC
DNA 2: TGGTGGCTACGACGGGATT
B5: UCUGGCU (DNA:RNA)
RNA: B2 RNA with A27U, U28G, A29G, G30C, C31U
DNA 1: CAATCTGAATTCCGGTCTCCC
DNA 2: TGGTGGCTACGACGGGATT
B6: CGGUCCU (DNA:RNA)
RNA: B1 RNA with U26G, C27G, A28U, G29C, A30C, G31U
DNA 1: CAATCTGAATTCCGGTCTCCC
DNA 2: TGGTGGCTACGACGGGATT
B7: AACCUAG (DNA:RNA)
RNA: B1 RNA with C25A, U26A, A28C, G29U
DNA 1: CAATCTGAATTCCGGTCTCCC
DNA 2: TGGTGGCTACGACGGGATT
B8: UGGUUUA (DNA:RNA)
RNA: B2 RNA with C26G, A27G, A29U, G30U, C31A
DNA 1: CAATCTGAATTCCGGTCTCCC
DNA 2: TGGTGGCTACGACGGGATT
B9: CCCCUCA (DNA:RNA)
RNA: B1 RNA with U26C, A28C, G29U, A30C, G31A
DNA 1: CAATCTGAATTCCGGTCTCCC
DNA 2: TGGTGGCTACGACGGGATT
B10: CUCAGCA (DNA:RNA)
RNA: B1 RNA with A30C, G31A
DNA 1: CAATCTGAATTCCGGTCTCCC
DNA 2: TGGTGGCTACGACGGGATT
B11: GAUACUG (DNA:RNA)
RNA: B1 RNA with C25G, U26A, C27U, G29C, A30U
DNA 1: CAATCTGAATTCCGGTCTCCC
DNA 2: TGGTGGCTACGACGGGATT
B12: CCAAAGC (DNA:RNA)
RNA: B2 RNA with U25C, U28A
DNA 1: CAATCTGAATTCCGGTCTCCC
DNA 2: TGGTGGCTACGACGGGATT
B13: UGGCCCG (DNA:RNA)
RNA: B1 RNA with C25U, U26G, C27G, A28C, G29C, A30C
DNA 1: CAATCTGAATTCCGGTCTCCC
DNA 2: TGGTGGCTACGACGGGATT
B14: GCGCCGC (DNA:RNA)
RNA: B2 RNA with U25G, A27G, U28C, A29C
DNA 1: CAATCTGAATTCCGGTCTCCC
DNA 2: TGGTGGCTACGACGGGATT
B15: GAUGCUC (DNA:RNA)
RNA: B2 RNA with U25G, C26A, A27U, U28G, A29C, G30U
DNA 1: CAATCTGAATTCCGGTCTCCC
DNA 2: TGGTGGCTACGACGGGATT
B16: CAAAGUA (DNA:RNA)
RNA: B1 RNA with U26A, C27A, A30U, G31A
DNA 1: CAATCTGAATTCCGGTCTCCC
DNA 2: TGGTGGCTACGACGGGATT
B17: GUGGCCG (DNA:RNA)
RNA: B1 RNA with C25G, C27G, A28G, G29C, A30C
DNA 1: CAATCTGAATTCCGGTCTCCC
DNA 2: TGGTGGCTACGACGGGATT
B18: GGAGCAG (DNA:RNA)
RNA: B1 RNA with C25G, U26G, C27A, A28G, G29C
DNA 1: CAATCTGAATTCCGGTCTCCC
DNA 2: TGGTGGCTACGACGGGATT
B19: CGAAUAA (DNA:RNA)
RNA: B1 RNA with U26G, C27A, G29U, G31A
DNA 1: CAATCTGAATTCCGGTCTCCC
DNA 2: TGGTGGCTACGACGGGATT
B20: GUGCUUG (DNA:RNA)
RNA: B1 RNA with C25G, C27G, A28C, G29U, A30U
DNA 1: CAATCTGAATTCCGGTCTCCC
DNA 2: TGGTGGCTACGACGGGATT
B21: AUGUGGG (DNA:RNA)
RNA: B1 RNA with C25A, C27G, A28U, A30G
DNA 1: CAATCTGAATTCCGGTCTCCC
DNA 2: TGGTGGCTACGACGGGATT
B22: GUAGGUG (DNA:RNA)
RNA: B1 RNA with C25G, C27A, A28G, A30U
DNA 1: CAATCTGAATTCCGGTCTCCC
DNA 2: TGGTGGCTACGACGGGATT
B23: UUUGAGU (DNA:RNA)
RNA: B2 RNA with C26U, A27U, U28G, C31U
DNA 1: CAATCTGAATTCCGGTCTCCC
DNA 2: TGGTGGCTACGACGGGATT
B24: CGGAUCU (DNA:RNA)
RNA: B1 RNA with U26G, C27G, G29U, A30C, G31U
DNA 1: CAATCTGAATTCCGGTCTCCC
DNA 2: TGGTGGCTACGACGGGATT
B25: UAGCUCU (DNA:RNA)
RNA: B2 RNA with C26A, A27G, U28C, A29U, G30C, C31U
DNA 1: CAATCTGAATTCCGGTCTCCC
DNA 2: TGGTGGCTACGACGGGATT
B26: CCAUUCG (DNA:RNA)
RNA: B2 RNA with U25C, A29U, G30C, C31G
DNA 1: CAATCTGAATTCCGGTCTCCC
DNA 2: TGGTGGCTACGACGGGATT
B27: ACUGCGU (DNA:RNA)
RNA: B2 RNA with U25A, A27U, U28G, A29C, C31U
DNA 1: CAATCTGAATTCCGGTCTCCC
DNA 2: TGGTGGCTACGACGGGATT
B28: UGAUAUG (DNA:RNA)
RNA: B2 RNA with C26G, G30U, C31G
DNA 1: CAATCTGAATTCCGGTCTCCC
DNA 2: TGGTGGCTACGACGGGATT
B29: CGUUACC (DNA:RNA)
RNA: B2 RNA with U25C, C26G, A27U, G30C
DNA 1: CAATCTGAATTCCGGTCTCCC
DNA 2: TGGTGGCTACGACGGGATT
B30: GGCCGCA (DNA:RNA)
RNA: B1 RNA with C25G, U26G, A28C, A30C, G31A
DNA 1: CAATCTGAATTCCGGTCTCCC
DNA 2: TGGTGGCTACGACGGGATT
B31: UUACUUC (DNA:RNA)
RNA: B2 RNA with C26U, U28C, A29U, G30U
DNA 1: CAATCTGAATTCCGGTCTCCC
DNA 2: TGGTGGCTACGACGGGATT

molecular target: T1, RBFOX1 RRM RbFoxmut (Fox-RRM*); test: EMSA; HiTS-Eq, 1 nM pool, 10 min; buffer printed only for the single-RNA assays: 10 mM Tris pH 7.5, 150 mM NaCl, 3.4 mM EDTA, 0.001% NP-40, 30 C; settings: tags: His6 N-terminal (pET28a); label: 5' 32P
Method in brief: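 Relative association constants, normalised to the cognate motif, were derived by comparing read counts of each RNA species with those of the control reaction. The RNA sequenced was the free fraction, separated by 8% native PAGE after a 10 min equilibration in 50 µL of 1 nM 5′-radiolabelled RNA (7 randomized nucleotides) with increasing concentrations of purified wild-type or mutant RbFox RRM.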

| Binder | binding signal |
| --- | --- |
| B1 | 0.137 KA relative to UGCAUGU |
| B2 | 0.116 KA relative to UGCAUGU |
| B3 | 0.0812 KA relative to UGCAUGU |
| B4 | 0.12 KA relative to UGCAUGU |
| B5 | 0.0857 KA relative to UGCAUGU |
| B6 | 0.0605 KA relative to UGCAUGU |
| B7 | 0.0762 KA relative to UGCAUGU |
| B8 | 0.107 KA relative to UGCAUGU |
| B9 | 0.0989 KA relative to UGCAUGU |
| B10 | 0.149 KA relative to UGCAUGU |
| B11 | 0.116 KA relative to UGCAUGU |
| B12 | 0.0865 KA relative to UGCAUGU |
| B13 | 0.152 KA relative to UGCAUGU |
| B14 | 0.0958 KA relative to UGCAUGU |
| B15 | 0.0632 KA relative to UGCAUGU |
| B16 | 0.109 KA relative to UGCAUGU |

| Binder | binding signal |
| --- | --- |
| B17 | 0.202 KA relative to UGCAUGU |
| B18 | 0.0829 KA relative to UGCAUGU |
| B19 | 0.0787 KA relative to UGCAUGU |
| B20 | 0.511 KA relative to UGCAUGU |
| B21 | 0.134 KA relative to UGCAUGU |
| B22 | 0.157 KA relative to UGCAUGU |
| B23 | 0.121 KA relative to UGCAUGU |
| B24 | 0.099 KA relative to UGCAUGU |
| B25 | 0.0833 KA relative to UGCAUGU |
| B26 | 0.104 KA relative to UGCAUGU |
| B27 | 0.122 KA relative to UGCAUGU |
| B28 | 0.437 KA relative to UGCAUGU |
| B29 | 0.0897 KA relative to UGCAUGU |
| B30 | 0.107 KA relative to UGCAUGU |
| B31 | 0.0594 KA relative to UGCAUGU |
